In the BET-seq Pho4 binding data (Le et al. 2018):
The other results are listed elsewhere or left out. These are noisy estimates, calculated here from bound and input reads.

Target: T1, Pho4 (S. cerevisiae) (UniProt P07270)
T1 sequence: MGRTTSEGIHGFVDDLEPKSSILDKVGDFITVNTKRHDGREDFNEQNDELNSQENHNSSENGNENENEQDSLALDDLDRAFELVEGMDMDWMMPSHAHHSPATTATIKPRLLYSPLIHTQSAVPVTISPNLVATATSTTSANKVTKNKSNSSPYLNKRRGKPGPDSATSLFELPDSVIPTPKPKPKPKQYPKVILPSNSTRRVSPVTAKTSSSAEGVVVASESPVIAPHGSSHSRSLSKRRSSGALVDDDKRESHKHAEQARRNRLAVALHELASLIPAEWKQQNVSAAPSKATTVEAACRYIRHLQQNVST
Experiment: relative binding free energy (BET-seq); higher = weaker binding
Conditions: reference: library average

Sequence	relative binding free energy [kcal/mol]
ATAGTCACGTGGCGTA	0
CTAGTCACGTGTGGGA	0.15
TTAGACACGTGGATTT	0.22
TGATGCACGTGAGATA	0.19
ATGTCCACGTGTTGTA	-0.06
TAAGTCACGTGTGATA	0.11
GTGTTCACGTGCTGCA	0.37
ATGTACACGTGTGTTT	0.18
CCGTTCACGTGGTGGT	0.12
GGATGCACGTGTCATA	0.11
TACAGCACGTGCGGGG	-0.14
TTAAACACGTGAAGGG	0.28
ATTATCACGTGCGTTA	0.12
GTGAACACGTGGTAGG	-0.1
AATGGCACGTGCGGGA	-0.18
GGATGCACGTGGGAGG	-0.15
TGGTTCACGTGAAGAT	0.32
TTAATCACGTGTAGTC	0.07
GCTAGCACGTGCGTGG	-0.12
CGTGGCACGTGTTGTG	-0.07
TTGAGCACGTGTTTAC	-0.03
ATTTCCACGTGTGGGC	0.17
TATGGCACGTGAGTTC	0.12
ATGGGCACGTGGTCGT	-0.33
CGTGGCACGTGCGGCG	-0.19
GAAGACACGTGTGGGA	0.03

Sequence	relative binding free energy [kcal/mol]
GATTGCACGTGACGTG	0.2
ACGTGCACGTGGGTTC	-0.12
TGTCGCACGTGTTTTA	0.06
GTTCACACGTGGTGAT	0.07
TTGTTCACGTGGGTCA	0.17
AGGCGCACGTGTTATG	0.01
TAGTCCACGTGGTTGA	-0.03
CTAGGCACGTGTTGTT	-0.13
TGATCCACGTGTTTTT	0.05
ATTGACACGTGGGACG	-0.16
ATTTTCACGTGAGGAC	0.53
AGCGTCACGTGATATT	0.35
AGTCTCACGTGTTATT	0.12
GATTCCACGTGCTGGT	0.19
GGCGGCACGTGGGTTC	-0.08
TTTAGCACGTGGGGAG	-0.1
TTACGCACGTGGGGCG	-0.37
TGGTTCACGTGCGCTA	0.33
AGTAACACGTGTGGTT	0.03
TTGTACACGTGGTTCA	-0.11
CAGGTCACGTGTCGTG	0.04
CTGTTCACGTGTGTAG	0.19
ACGAGCACGTGGCTGG	-0.13
CTTTTCACGTGCGGTG	0.32
TGGGTCACGTGATTGA	0.08
AATTACACGTGTGTGT	0.08

Sequence	relative binding free energy [kcal/mol]
AGTTTCACGTGTTGAG	0.28
ATGTACACGTGGGAGG	0.01
TGAGTCACGTGCGGCT	0.14
TACATCACGTGTTTGT	-0.01
AGAATCACGTGTATTT	0.11
AGTCACACGTGTGTGA	0.06
TTAGACACGTGAGTTC	0.26
TTATACACGTGGTGAC	0.07
TAGGTCACGTGTGCGG	-0.05
AGTAACACGTGGGTCT	-0.1
ACTAACACGTGTGTGT	0.01
ATCGTCACGTGTCGGA	0.16
TCTGTCACGTGTGGGG	0.14
GATACCACGTGGGTTT	-0.09
GAGGTCACGTGAATTT	0.54
AATTACACGTGTTTTG	0.11
TGGGCCACGTGTACGG	-0.09
ATTGTCACGTGGGTAC	-0.01
GGATGCACGTGATGGA	0.15
TGTTTCACGTGAGGTT	0.45
AACTTCACGTGTGTGT	0.26
GGCTTCACGTGGCTTG	0.25
TTAGACACGTGTTGCG	0.06
TTTAGCACGTGTTACA	-0.16
TCGCGCACGTGGGAGA	0.08
TGGGTCACGTGATCTG	0.18

Sequence	relative binding free energy [kcal/mol]
TTGAACACGTGTCGTG	0.05
GGTTCCACGTGTCTTG	0.2
GATATCACGTGGGCTC	0.28
GTGATCACGTGCGATG	0.07
TCGATCACGTGGTATG	0.07
GTGGGCACGTGCTATA	0.01
ATACTCACGTGGGTTA	0.08
TTAATCACGTGCGGTC	0.24
GGTTGCACGTGATCAG	0.04
ATACGCACGTGGGTGG	-0.37
CTACGCACGTGTGTGT	-0.12
TTAATCACGTGTTTCA	0.06
TTCGACACGTGACGGT	0.23
ACGTTCACGTGTAGGT	0.24
GACGACACGTGTAGGG	0.12
ACTGTCACGTGGGCTG	-0.15
TGCTACACGTGGTGGG	0.04
CATGGCACGTGAGGGG	0.15
TAAGGCACGTGTGTTT	-0.02
AAGAGCACGTGTTGTG	-0.07
ATTCTCACGTGCTGGT	0.11
TGTAGCACGTGTGAAA	-0.07
TAAGACACGTGAGGGG	0.16
TAGTTCACGTGAGGTT	0.36
AGAGGCACGTGGATGC	-0.12
AGGTGCACGTGTTAGA	0.03

Sequence	relative binding free energy [kcal/mol]
GAGAACACGTGTGGGT	0.21
AGTAGCACGTGTTGTT	-0.1
TACGTCACGTGCGGTA	0.08
GCGGTCACGTGATTTT	0.49
GGTAACACGTGTTACT	0.24
AGTCGCACGTGGGGGT	-0.22
ATTATCACGTGTGGAT	0.12
TGGTGCACGTGTTTGA	0.05
TCTAGCACGTGTTGGC	-0.1
ATGTTCACGTGAGGTG	0.23
GGTTCCACGTGGGTTT	-0.04
TCAGTCACGTGTATAT	0.09
TCGCGCACGTGTTGAG	-0.07
CTTTACACGTGCGTGG	-0.08
AGAGTCACGTGAGATG	0.14
ATTGCCACGTGTCTGG	0
ATCTGCACGTGTGTTG	-0.12
GCGAGCACGTGGTGCG	-0.08
CTTTACACGTGTGTTA	0.24
TGCGTCACGTGATGTT	0.3
ATTTTCACGTGCTTTT	0.26
TTAGCCACGTGGTGGA	-0.07
GTTAGCACGTGTTGCC	0.2
TTTGGCACGTGAATAA	0.03
TTCGTCACGTGTGTTG	0.06
GTTACCACGTGAGGTG	0.17

Sequence	relative binding free energy [kcal/mol]
ATTGTCACGTGCAGGG	0.04
CAAGTCACGTGTTGGT	0.14
CTGGTCACGTGGTGGA	0.05
AGGATCACGTGGTAAG	0.05
TTATTCACGTGTAGCG	0.04
GAATGCACGTGTAGTA	0.08
TGGAACACGTGTGAGG	0.17
TTATTCACGTGGTCTA	0.04
GGGCTCACGTGCGTGT	0.11
CGTGACACGTGGATTT	0.07
AAGGGCACGTGAGATT	0.11
TCATTCACGTGGTATT	0.18
TGATTCACGTGTGGGA	0.32
GGGAACACGTGGGCAG	-0.03
ATGTCCACGTGGGGCG	-0.09
AGTGGCACGTGATATT	-0.14
CGTTTCACGTGGTTGT	0.28
GTGTTCACGTGTGGGG	0.3
TCGGTCACGTGTCATG	0.15
TGAACCACGTGGTGGT	-0.02
TCAAGCACGTGTTTTT	0.04
GGGGGCACGTGTTGAA	-0.02
TTTAACACGTGGCTGG	0.04
GACCGCACGTGGGGTG	-0.32
CACGACACGTGGGTGT	-0.16
AGGTCCACGTGGTGAA	0.06

Sequence	relative binding free energy [kcal/mol]
GGTAGCACGTGAAAGT	0.24
TTAAGCACGTGATATA	-0.09
TGGTACACGTGATACG	0.14
GGGGTCACGTGTGAGA	0.17
GGGGGCACGTGGGACA	-0.15
TGGGCCACGTGTAGTG	-0.04
TGGAGCACGTGTGAGC	0.15
TAGATCACGTGGATTT	0.2
GGGGGCACGTGTGTGG	-0.02
TTGTTCACGTGACAAG	0.31
GTGTACACGTGGGTGT	-0.11
ATTTTCACGTGCTTGG	0.2
CGGGTCACGTGAGGAG	0.35
TGTAGCACGTGTAGCA	-0.04
GGGTACACGTGCGGTA	0.07
TGTTACACGTGCATTA	0.14
CGTGCCACGTGGGTAG	-0.1
GGTGGCACGTGTAGCT	-0.07
GTGAACACGTGTGTGA	0.01
AGTGACACGTGAGCTG	0.21
TTATTCACGTGTTCGA	0.24
GGAGGCACGTGAGTAA	0.27
TTGTCCACGTGGAATT	0.18
CAAGCCACGTGGGGTG	-0.16
TTTATCACGTGGAATG	0.17
AAATACACGTGGGGGG	-0.05

Sequence	relative binding free energy [kcal/mol]
TTTTGCACGTGTGGCA	0.06
TTTTTCACGTGCGTCT	0.14
GTGGTCACGTGAATTG	0.28
GATTTCACGTGTGTAA	0.33
GTAGACACGTGGATGG	0.1
TGATGCACGTGGTAGA	-0.23
GACGTCACGTGTAGGT	0.18
ATTAGCACGTGAATGT	0.2
TGGTCCACGTGATGGG	0.14
AGTGCCACGTGGTTAG	-0.03
CAGGGCACGTGTGTTG	-0.12
GAAGACACGTGGGGCG	-0.05
ATGAGCACGTGTGTCG	-0.04
ATGTACACGTGTTCTG	-0.06
CTTTTCACGTGCTTTA	0.19
TTGTACACGTGGTACG	-0.1
TAAATCACGTGAATGT	0.42
CTTAACACGTGTTGTT	0
GATGACACGTGGGTAG	-0.09
TTGTTCACGTGAAAAT	0.27
ATAATCACGTGGTTGT	0.08
CATGGCACGTGTTTAT	-0.13
GTATTCACGTGAGGGA	0.39
GGTATCACGTGGTCAA	0.06
GTGGACACGTGCTTGT	0.01
TGTTGCACGTGTGGAA	0.05

Sequence	relative binding free energy [kcal/mol]
CGTGGCACGTGAGCCG	0.13
GTTGCCACGTGGGATG	-0.19
GTGTGCACGTGCAATA	0.05
TGGGCCACGTGAGTGT	0.05
TATGGCACGTGATTTG	-0.17
AGCTACACGTGGTGTG	-0.03
AGGGTCACGTGTGTTA	0.12
GGTGGCACGTGCGAGC	-0.12
GGTGGCACGTGGCCCG	-0.25
TCTAGCACGTGGGCGT	-0.2
ATTGGCACGTGAGAAG	0.14
TAGTGCACGTGTCTTG	0.05
AATATCACGTGCGGGA	0.23
TGTGTCACGTGGCATC	-0.12
TTTCGCACGTGTTGAT	0.03
TATGACACGTGTATTG	-0.01
AGGGACACGTGAGGAA	0.18
CGTCGCACGTGGTGGA	-0.25
GTTAACACGTGAATGT	0.34
ATGTACACGTGGGGAC	-0.08
TTTATCACGTGTGCGT	0.19
AGTTGCACGTGGCGCT	-0.07
